Results: patent US20200181257A1 (Chugai, published 2020)
Changes are numbered by the printed parent chain. Names and notes keep the numbering of the source. Read-outs that look alike come from different tables or passages of the source. Each block holds one binder with its values, some of them ahead of it.

Experiments:
Experiment in all cases: SPR, antibody captured on Protein A
[1] = molecular target: T1, human Fcγ receptor hFcgRIa (human, UniProt P12314 16-292, limits assumed)
T1 construct: Construct used in the SPR assay is not described; also called hFcγRIa; FcγI
Description: (§1) The CH2 domain, which was modified in this examination, is known to be involved in interaction with several human Fcγ receptors (hereinafter denoted as hFcgRs) which affect effector functions. Therefore, the binding of TS1 and TS19 prepared by using the H chain of anti-IL6R produced in Example 2 to hFcgRs was measured, according to the method described in Reference Example 3.
(§2) Interactions between antibodies and hFcgRs (hFcgRIa, hFcgRIIa(R), hFcgRIIa(H), hFcgRIIb, hFcgRIIIa(F), and hFcgRIIIa(V)) were analyzed using Biacore T100 (GE Healthcare). HBS-EP+(GE Healthcare) was used for the running buffer, and the measurement temperature was set at 25° C. Protein A (Invitrogen) was immobilized by the amino coupling method, and an antibody of interest was captured thereon. Then, hFcγR solutions diluted using the running buffer were injected to allow interaction with the captured antibody at a flow rate of 30 μL/min for five minutes for hFcγRIa, and at a flow rate of 5 μL/min for one minute for the other hFcγRs. […] Since the hFcγR binding level depends on the amount of captured antibodies, the FcgR-binding levels were corrected so that the capture level of each antibody would be 200 RU (resonance unit) for hFcgRIa and 1000 RU (resonance unit) for the other hFcgRs. The captured antibodies were washed by allowing 10 mM glycine-HCl (pH 1.5) to react for 30 seconds at a flow rate of 30 μL/min to recycle the chip for reuse.

[2] = molecular target: T2, human Fcγ receptor hFcgRIIa (R) (human, UniProt P12318 36-217)
T2 construct: also called FcγRIIa (type R); FcγIIA
T2 chain: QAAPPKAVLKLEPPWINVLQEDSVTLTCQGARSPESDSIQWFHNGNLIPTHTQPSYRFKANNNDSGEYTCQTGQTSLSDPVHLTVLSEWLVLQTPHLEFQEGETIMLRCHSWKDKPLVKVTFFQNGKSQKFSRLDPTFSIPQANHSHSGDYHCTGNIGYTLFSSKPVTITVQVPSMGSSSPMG
Description: as §1, §2

[3] = molecular target: T3, human Fcγ receptor hFcgRIIa (H) (human, UniProt P12318 36-217)
T3 construct: also called FcγRIIa (type H); FcγIIA
T3 sequence: T2 chain with R133H
Description: as §1, §2

[4] = molecular target: T4, human Fcγ receptor hFcgRIIb (human, UniProt P31994 43-217, limits assumed)
T4 construct: Construct used in the SPR assay is not described; also called FcγRIIb; FcγIIB
T4 sequence: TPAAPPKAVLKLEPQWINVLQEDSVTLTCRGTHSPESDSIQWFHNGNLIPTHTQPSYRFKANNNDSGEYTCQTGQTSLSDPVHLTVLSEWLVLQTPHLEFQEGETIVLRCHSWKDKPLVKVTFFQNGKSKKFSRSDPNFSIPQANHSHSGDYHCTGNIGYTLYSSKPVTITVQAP
Description: as §1, §2

[5] = molecular target: T5, human Fcγ receptor hFcgRIIIa (V) (human, UniProt P08637 partial chain)
T5 construct: also called FcγRIIIa allotype V158; FcγIIIA
Description: as §1, §2

[6] = molecular target: T1, human Fcγ receptor hFcgRIa; remark: listed apart in the source
Description: (§3) Furthermore, binding ability to hFcgRs was measured by the method described in Reference Example 3.
as §2

[7] = molecular target: T2, human Fcγ receptor hFcgRIIa (R)
Description: as §3, §2

[8] = molecular target: T3, human Fcγ receptor hFcgRIIa (H); remark: listed apart in the source
Description: as §3, §2

[9] = molecular target: T4, human Fcγ receptor hFcgRIIb; remark: listed apart in the source
Description: as §3, §2

[10] = molecular target: T5, human Fcγ receptor hFcgRIIIa (V); remark: listed apart in the source
Description: as §3, §2

T1 sequence (P12314 16-292 limits assumed): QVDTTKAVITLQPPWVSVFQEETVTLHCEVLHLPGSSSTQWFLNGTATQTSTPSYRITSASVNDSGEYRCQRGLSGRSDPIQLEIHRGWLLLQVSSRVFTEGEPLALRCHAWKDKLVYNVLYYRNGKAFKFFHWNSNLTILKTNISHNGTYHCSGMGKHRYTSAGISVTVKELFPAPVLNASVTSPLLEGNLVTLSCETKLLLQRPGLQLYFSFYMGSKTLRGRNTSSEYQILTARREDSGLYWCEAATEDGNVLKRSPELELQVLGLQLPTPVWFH
T5 sequence (P08637 other isoform, or with tags, fused parts or gaps limits assumed): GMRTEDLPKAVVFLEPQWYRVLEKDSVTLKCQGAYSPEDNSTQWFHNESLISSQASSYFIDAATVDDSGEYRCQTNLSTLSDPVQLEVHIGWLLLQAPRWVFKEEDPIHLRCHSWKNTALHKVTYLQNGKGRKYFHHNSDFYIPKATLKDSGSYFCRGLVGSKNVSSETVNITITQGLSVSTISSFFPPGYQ

B1: TS4 (antibody)
heavy: QVQLQESGPGLVRPSQTLSLTCTVSGYSITSDHAWSWVRQPPGRGLEWIGYISYSGITTYNPSLKSRVTMLRDTSKNQFSLRLSSVTAADTAVYYCARSLARTTAMDYWGQGSLVTVSS[human IgG1 constant region with Q295M Y300E (EU numbers) not shown]
light: DIQMTQSPSSLSASVGDRVTITCRASQDISSYLNWYQQKPGKAPKLLIYYTSRLHSGVPSRFSGSGSGTDFTFTISSLQPEDIATYYCQQGNTLPYTFGQGTKVEIKRTVAAPSVFIFPPSDEQLKSGTASVVCLLNNFYPREAKVQWKVDNALQSGNSQESVTEQDSKDSTYSLSSTLTLSKADYEKHKVYACEVTHQGLSSPVTKSFNRGEC
notes: anti-IL6R IgG1, G1d with Q295M/Y300E (EU); also called TS04
- binding relative to G1 (=100) [1]: 99.3
- binding relative to G1 (=100) [2]: 148
- binding relative to G1 (=100) [3]: 106
- binding relative to G1 (=100) [4]: 220
- binding relative to G1 (=100) [5]: 99.2

B6: TS5 (antibody)
heavy: QVQLQESGPGLVRPSQTLSLTCTVSGYSITSDHAWSWVRQPPGRGLEWIGYISYSGITTYNPSLKSRVTMLRDTSKNQFSLRLSSVTAADTAVYYCARSLARTTAMDYWGQGSLVTVSS[human IgG1 constant region with Q295L (EU numbers) not shown]
light: B1 light
notes: anti-IL6R IgG1, G1d with Q295L (EU); also called TS05
- binding relative to G1 (=100) [1]: 97.3
- binding relative to G1 (=100) [4]: 158
- binding relative to G1 (=100) [5]: 106

B7: TS10 (antibody)
heavy: QVQLQESGPGLVRPSQTLSLTCTVSGYSITSDHAWSWVRQPPGRGLEWIGYISYSGITTYNPSLKSRVTMLRDTSKNQFSLRLSSVTAADTAVYYCARSLARTTAMDYWGQGSLVTVSS[human IgG1 constant region with L234K L235R (EU numbers) not shown]
light: B1 light
notes: anti-IL6R IgG1, G1d with L234K/L235R (EU)
- binding relative to G1 (=100) [1]: 0.2
- binding relative to G1 (=100) [2]: 1.4
- binding relative to G1 (=100) [3]: 0.7
- binding relative to G1 (=100) [4]: 3
- binding relative to G1 (=100) [5]: 1.1

B8: TS8 (antibody)
heavy: QVQLQESGPGLVRPSQTLSLTCTVSGYSITSDHAWSWVRQPPGRGLEWIGYISYSGITTYNPSLKSRVTMLRDTSKNQFSLRLSSVTAADTAVYYCARSLARTTAMDYWGQGSLVTVSS[human IgG1 constant region with K326A A330Y (EU numbers) not shown]
light: B1 light
notes: anti-IL6R IgG1, G1d with K326A/A330Y (EU); also called TS08
- binding relative to G1 (=100) [1]: 102
- binding relative to G1 (=100) [2]: 120
- binding relative to G1 (=100) [3]: 101
- binding relative to G1 (=100) [4]: 132
- binding relative to G1 (=100) [5]: 124

Other lines, results leading:

- binding relative to G1 (=100) [1]: 10.7
- binding relative to G1 (=100) [2]: 3.5
- binding relative to G1 (=100) [3]: 2.3
- binding relative to G1 (=100) [5]: 4.2
B2: TS19 (antibody)
heavy: QVQLQESGPGLVRPSQTLSLTCTVSGYSITSDHAWSWVRQPPGRGLEWIGYISYSGITTYNPSLKSRVTMLRDTSKNQFSLRLSSVTAADTAVYYCARSLARTTAMDYWGQGSLVTVSS[human IgG1 constant region with S239K N325H (EU numbers) not shown]
light: B1 light
notes: anti-IL6R IgG1, G1d with S239K/N325H (EU)

- binding relative to G1 (=100) [6]: 101
- binding relative to G1 (=100) [7]: 103
- binding relative to G1 (=100) [8]: 110
- binding relative to G1 (=100) [9]: 113
- binding relative to G1 (=100) [10]: 103
B3: TS44 (antibody)
heavy: QVQLQESGPGLVRPSQTLSLTCTVSGYSITSDHAWSWVRQPPGRGLEWIGYISYSGITTYNPSLKSRVTMLRDTSKNQFSLRLSSVTAADTAVYYCARSLARTTAMDYWGQGSLVTVSS[about 350 residues not shown]
light: B1 light
notes: anti-IL6R IgG1, G1d with P247V (EU)

- binding relative to G1 (=100) [1]: 9
- binding relative to G1 (=100) [2]: 2.7
- binding relative to G1 (=100) [3]: 1
- binding relative to G1 (=100) [5]: 1.9
B4: TS17 (antibody)
heavy: QVQLQESGPGLVRPSQTLSLTCTVSGYSITSDHAWSWVRQPPGRGLEWIGYISYSGITTYNPSLKSRVTMLRDTSKNQFSLRLSSVTAADTAVYYCARSLARTTAMDYWGQGSLVTVSS[human IgG1 constant region with S239K N325G (EU numbers) not shown]
light: B1 light
notes: anti-IL6R IgG1, G1d with S239K/N325G (EU)

- binding relative to G1 (=100) [1]: -0.2
- binding relative to G1 (=100) [2]: 1.5
- binding relative to G1 (=100) [3]: 1.3
- binding relative to G1 (=100) [4]: 3.4
- binding relative to G1 (=100) [5]: 1.4
B5: TS11 (antibody)
heavy: QVQLQESGPGLVRPSQTLSLTCTVSGYSITSDHAWSWVRQPPGRGLEWIGYISYSGITTYNPSLKSRVTMLRDTSKNQFSLRLSSVTAADTAVYYCARSLARTTAMDYWGQGSLVTVSS[human IgG1 constant region with L234R L235K (EU numbers) not shown]
light: B1 light
notes: anti-IL6R IgG1, G1d with L234R/L235K (EU)
